From article PMC9669179 (Epilepsia, 2022)

Assay: Brain pharmacokinetics in rats
Conditions: rat, high dose i.p.: CLB 37, CBZ 24, VPA 315, LEV 800 mg/kg

In the case of `CN1C(=O)CC(=O)N(c2ccccc2)c2cc(Cl)ccc21` [CLB, Clobazam], the “Brain AUC (0-8 hr)” value is reported as 7.86 ng·h/mg, the “Brain Cmax” value is reported as 6.59 ng/mg and the “Brain Cmin” value is reported as 0.051 ng/mg.
